# Measurements taken from the supplement of paper PMC8728848.
# This is one part of the list.
# Assays:
# Assay in all cases: glycan array binding signal (z-score within array); higher = stronger binding
# Details in all cases: glycan notation: IUPAC condensed, linker removed; mutation: I144G
# [1] = biological target: Gal(b1-4)GalNAc(b1-3)[Fuc(a1-2)]Gal(b1-4)GlcNAc
# In short: (§1)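 Glycan array data came from 3228 arrays in the Consortium for Functional Glycomics database, and only arrays with an available protein sequence were kept. Glycan names were put into IUPAC-condensed notation, and columns mapping to the same glycan were averaged. The binding signal is a within-array Z-score, averaged across arrays of one protein sequence run at different concentrations or buffers and across linkers. A negative Z-score can be read as non-binding.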
# [2] = biological target: Gal(b1-4)Glc
# In short: as §1
# [3] = biological target: Gal(b1-4)Glc6S
# In short: as §1
# [4] = biological target: Gal(b1-4)GlcNAc
# In short: as §1
# [5] = biological target: Gal(b1-4)GlcNAc(a1-6)Gal(b1-4)GlcNAc
# In short: as §1
# [6] = biological target: Gal(b1-4)GlcNAc(b1-2)Man
# In short: as §1
# [7] = biological target: Gal(b1-4)GlcNAc(b1-2)Man(a1-3)Man(b1-4)GlcNAc(b1-4)GlcNAc
# In short: as §1
# [8] = biological target: Gal(b1-4)GlcNAc(b1-2)Man(a1-3)[Gal(b1-4)GlcNAc(b1-2)Man(a1-6)]Man(b1-4)GlcNAc(b1-4)GlcNAc
# In short: as §1
# [9] = biological target: Gal(b1-4)GlcNAc(b1-2)Man(a1-3)[Gal(b1-4)GlcNAc(b1-2)Man(a1-6)]Man(b1-4)GlcNAc(b1-4)[Fuc(a1-6)]GlcNAc
# In short: as §1
# [10] = biological target: Gal(b1-4)GlcNAc(b1-2)Man(a1-3)[Gal(b1-4)GlcNAc(b1-2)Man(a1-6)][Gal(b1-4)GlcNAc(b1-4)]Man(b1-4)GlcNAc(b1-4)[Fuc(a1-6)]GlcNAc
# In short: as §1
# [11] = biological target: Gal(b1-4)GlcNAc(b1-2)Man(a1-3)[Gal(b1-4)GlcNAc(b1-2)Man(a1-6)][GlcNAc(b1-4)]Man(b1-4)GlcNAc(b1-4)[Fuc(a1-6)]GlcNAc
# In short: as §1
# [12] = biological target: Gal(b1-4)GlcNAc(b1-2)Man(a1-3)[GlcNAc(b1-2)Man(a1-6)]Man(b1-4)GlcNAc(b1-4)GlcNAc
# In short: as §1
# [13] = biological target: Gal(b1-4)GlcNAc(b1-2)Man(a1-3)[GlcNAc(b1-4)][Gal(b1-4)GlcNAc(b1-2)Man(a1-6)]Man(b1-4)GlcNAc(b1-4)GlcNAc
# In short: as §1
# [14] = biological target: Gal(b1-4)GlcNAc(b1-2)Man(a1-3)[Man(a1-6)]Man(b1-4)GlcNAc(b1-4)GlcNAc
# In short: as §1
# [15] = biological target: Gal(b1-4)GlcNAc(b1-2)Man(a1-6)Man(b1-4)GlcNAc(b1-4)GlcNAc
# In short: as §1
# [16] = biological target: Gal(b1-4)GlcNAc(b1-2)Man(a1-6)[GlcNAc(b1-2)Man(a1-3)]Man(b1-4)GlcNAc(b1-4)GlcNAc
# In short: as §1
# [17] = biological target: Gal(b1-4)GlcNAc(b1-2)Man(a1-6)[Man(a1-3)]Man(b1-4)GlcNAc(b1-4)GlcNAc
# In short: as §1
# [18] = biological target: Gal(b1-4)GlcNAc(b1-2)[Gal(b1-4)GlcNAc(b1-4)]Man(a1-3)[Gal(b1-4)GlcNAc(b1-2)Man(a1-6)]Man(b1-4)GlcNAc(b1-4)GlcNAc
# In short: as §1
# [19] = biological target: Gal(b1-4)GlcNAc(b1-2)[Gal(b1-4)GlcNAc(b1-4)]Man(a1-3)[Gal(b1-4)GlcNAc(b1-2)[Gal(b1-4)GlcNAc(b1-6)]Man(a1-6)]Man(b1-4)GlcNAc(b1-4)GlcNAc
# In short: as §1
# [20] = biological target: Gal(b1-4)GlcNAc(b1-2)[Gal(b1-4)GlcNAc(b1-4)]Man(a1-3)[GlcNAc(b1-4)][Gal(b1-4)GlcNAc(b1-2)Man(a1-6)]Man(b1-4)GlcNAc(b1-4)GlcNAc
# In short: as §1
# [21] = biological target: Gal(b1-4)GlcNAc(b1-2)[Gal(b1-4)GlcNAc(b1-4)]Man(a1-3)[GlcNAc(b1-4)][Gal(b1-4)GlcNAc(b1-2)[Gal(b1-4)GlcNAc(b1-6)]Man(a1-6)]Man(b1-4)GlcNAc(b1-4)GlcNAc
# In short: as §1
# [22] = biological target: Gal(b1-4)GlcNAc(b1-2)[Gal(b1-4)GlcNAc(b1-6)]Man(a1-6)[Gal(b1-4)GlcNAc(b1-2)Man(a1-3)]Man(b1-4)GlcNAc(b1-4)GlcNAc
# In short: as §1
binder,measurement,setting,value
"rAAL-I144G (Agrocybe aegerita), Q6WY08 (protein) MQGVNIYNISAGTSVDLAAPVTTGDIVTFFSSALNLNAGAGNPNNTTLNLFAENGAYLLHIAFRLQENVIIFNSRQPDGPWLVEQRVSDVANQFAGIDGKAMVTVFDHGDKYQVVINEKTVIQYTKQISGLTLSLSYNATEETSGFSTVVEAVTYTGLALEHHHHHH",glycan array binding signal (z-score),[1],-0.168
same,glycan array binding signal (z-score),[2],-0.168
same,glycan array binding signal (z-score),[3],-0.137
same,glycan array binding signal (z-score),[4],-0.12
same,glycan array binding signal (z-score),[5],-0.145
same,glycan array binding signal (z-score),[6],1.09
same,glycan array binding signal (z-score),[7],-0.062
same,glycan array binding signal (z-score),[8],-0.075
same,glycan array binding signal (z-score),[9],-0.077
same,glycan array binding signal (z-score),[10],-0.084
same,glycan array binding signal (z-score),[11],-0.095
same,glycan array binding signal (z-score),[12],-0.118
same,glycan array binding signal (z-score),[13],-0.175
same,glycan array binding signal (z-score),[14],-0.061
same,glycan array binding signal (z-score),[15],-0.073
same,glycan array binding signal (z-score),[16],-0.137
same,glycan array binding signal (z-score),[17],-0.063
same,glycan array binding signal (z-score),[18],-0.09
same,glycan array binding signal (z-score),[19],-0.082
same,glycan array binding signal (z-score),[20],-0.087
same,glycan array binding signal (z-score),[21],-0.168
same,glycan array binding signal (z-score),[22],-0.135
